# Source: PubChem BioAssay (NCATS)
# Values joined by “and” are separate entries in the source; they are usually repeats but may differ in a detail not shown here. Identical values can stand only once. This list was built around the results that the source calls inconclusive (neither active nor inactive); the mix of calls is not that of the screen. Potencies of inconclusive entries are doubtful fits and often do not repeat. Active and inactive are the calls of the source. The call rests on the fitted dose curve; in most records, active means well fitted curve in the direction sought with a large enough effect; inconclusive means small, poorly fitted or top-dose-only effect, or another doubt; inactive means no such curve, though single readings can be large; an effect the other way counts as inactive or inconclusive.
# Legend:
# [1] = Viability qHTS for spleen associated tyrosine kinase inhibitor (SYKi) naive MV4-11 cells (AID 1963823); settings: MV4-11 AML viability, CellTiter-Glo luminescence, 72 h; series mostly up to 45 µM; further: nearly all actives have a fitted effect of over 40% in size
# In short: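 SYKi-naive MV4-11 AML cells, 500 per well, were exposed to library compounds for 72 hr at 37 C, 5% CO2. Viability was then read by CellTiter-Glo luminescence after 10 min at room temperature.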
# [2] = Quantitative highthroughput screen to assess conditional lethalithy of NOMO1 cells grown in RPMI1640 with untreated serum (RPMI+s) (AID 1963876); settings: NOMO1 AML cells in RPMI+serum, CellTiter-Glo viability, 48 h; viability: at 45.8 µM (top of the series); further: nearly all actives have a fitted effect of over 35% in size
# In short: (§1)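 Each medium arm—HPLM with 10% dialyzed FBS, or RPMI1640 with 5 mM glucose and 10% untreated or dialyzed FBS—was screened against an 11-point, 3-fold compound titration for 48 h at 37 °C, with CellTiter-Glo luminescence as endpoint.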
# [3] = Quantitative highthroughput screen to assess conditional lethalithy of NOMO1 cells grown in Human Plasma-Like Medium with dialyzed fetal bovine serum (HPLM+ds) (AID 1963878); settings: NOMO1 AML cells in HPLM+ds, CellTiter-Glo viability, 48 h; viability: at 45.8 µM (top of the series); further: nearly all actives have a fitted effect of over 35% in size
# In short: as §1
# [4] = Quantitative highthroughput screen to assess conditional lethalithy of P12 Ichikawa cells grown in RPMI1640 with dialyzed fetal bovine serum (RPMI+ds) (AID 1963880); settings: Potency: P12-Ichikawa viability; further: nearly all actives have a fitted effect of over 35% in size
# In short: as §1
# [5] = Quantitative highthroughput screen to assess conditional lethalithy of P12 Ichikawa cells grown in RPMI1640 with untreated serum (RPMI+s) (AID 1963881); settings: Potency: viability; further: nearly all actives have a fitted effect of over 35% in size
# In short: as §1
# [6] = Quantitative highthroughput screen to assess conditional lethalithy of SEM cells grown in Human Plasma-Like Medium with dialyzed fetal bovine serum (HPLM+ds) (AID 1963882); further: nearly all actives have a fitted effect of over 35% in size
# In short: as §1
# [7] = Quantitative highthroughput screen to assess conditional lethalithy of SEM cells grown in RPMI1640 with unreated serum (RPMI+s) (AID 1963883); settings: SEM B-ALL cells, CellTiter-Glo viability, 48 h; viability: at 45.8 µM (top of the series); further: nearly all actives have a fitted effect of over 35% in size
# In short: as §1
# [8] = Quantitative highthroughput screen to assess conditional lethalithy of SEM cells grown in RPMI1640 with dialyzed fetal bovine serum (RPMI+ds) (AID 1963884); settings: SEM B-ALL cells, RPMI+dialyzed FBS, CellTiter-Glo viability, 48 h; viability: at 45.8 µM (top of the series); further: nearly all actives have a fitted effect of over 35% in size
# In short: as §1
# [9] = Cellular viability qHTS for adrenocortical cancer (ACC) cell line SW-13 (AID 1963989); settings: SW-13 ACC cells viability, CellTiter-Glo, 48 h; activity (max response): stronger effect = lower value; further: nearly all actives have a fitted effect of over 65% in size
# In short: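 SW-13 cells in ITS-supplemented serum-free DMEM were plated overnight, then exposed for 48 h at 37C to compound titrations (up to 46 uM final). Viability was read by CellTiter-Glo luminescence; four-parameter logistic fits gave IC50 and efficacy.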
# [10] = Quantitative highthroughput screen to assess conditional lethalithy of P12 Ichikawa cells grown in Human Plasma-Like Medium with dialyzed fetal bovine serum (HPLM+ds) (AID 1963879); settings: Potency: viability; further: nearly all actives have a fitted effect of over 35% in size
# In short: as §1
# [11] = Cellular viability qHTS for adrenocortical cancer (ACC) cell line NCI-H295R (AID 1963990); settings: CellTiter-Glo ATP luminescence, 48 h; series mostly up to 46.1 µM; further: nearly all actives have a fitted effect of over 60% in size
# In short: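 Luminescent ATP read-out (CellTiter-Glo, 20 min RT) after 48 h drug exposure of NCI-H295R cells; a titration up to 46 uM final. Data normalized to doxorubicin (100% inhibition) and DMSO (0%); 4-parameter fit gives IC50, max response.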
# Potency means the concentration at half of the fitted maximal effect; tags describe the fitted curve by direction and shape.
Structure (SMILES),Potency [1],Potency [2],Potency [3],Potency [4],Potency [5],Potency [6],Potency [7],Potency [8],Potency [9],Potency [10],Potency [11]
C[C@@H]1COC(Nc2ccc3ncnc(Nc4ccc(OCc5nccs5)c(Cl)c4)c3c2)=N1,active: 4.11 µM,inactive,"inconclusive: 41.8 µM [cytotoxic, partial curve, poor fit]",active: 18.7 µM,"inconclusive: 20.9 µM [cytotoxic, partial curve]","inconclusive: 23.5 µM [cytotoxic, single point]","inconclusive: 23.5 µM [cytotoxic, single point]","inconclusive: 20.9 µM [cytotoxic, partial curve]",active: 15.8 µM,,
COc1cc2c(Oc3ccc(-c4cnc(Nc5ccc(F)cc5)n(C)c4=O)cc3F)ccnc2cc1OCCCN1CCOCC1,"inconclusive: 36.6 nM [cytotoxic, full curve] and inconclusive: 16.6 nM [cytotoxic, full curve]","inconclusive: 26.4 µM [cytotoxic, partial curve]",,"inconclusive: 26.4 µM [cytotoxic, single point]","inconclusive: 33.2 µM [cytotoxic, single point]",active: 0.166 µM,,,,"inconclusive: 29.6 µM [cytotoxic, single point]",active: 3.98 µM
Cc1ccc2c(=O)c3cccc(CC(=O)O)c3oc2c1C,active: 2.95 µM,inactive,inactive,,,"inconclusive: 11.8 µM [cytotoxic, single point]","inconclusive: 11.8 µM [cytotoxic, single point]","inconclusive: 11.8 µM [cytotoxic, single point]",,inactive,
C=CC(=O)N1CCc2ccc(-n3c(=O)ccc4cnc5ccc(-c6cnn(C)c6)cc5c43)cc21,active: 0.632 µM,active: 7.43 µM,active: 3.72 µM,,,,,active: 3.32 µM,,"inconclusive: 7.43 µM [cytotoxic, full curve]",
CN1CCC(=C2c3ccccc3CC(=O)c3sccc32)CC1,"inconclusive: 13.3 µM [cytotoxic, partial curve] and active: 26.3 µM",inactive,inactive,"inconclusive: 29.6 µM [cytotoxic, partial curve, poor fit]",,inactive,,inactive,,,"inconclusive: 23.1 µM [cytotoxic, partial curve, poor fit]"
Cn1cc(C2=C(c3c4n(c5ccccc35)CCC(CN)C4)C(=O)NC2=O)c2ccccc21 (centres undefined),active: 2.15 µM,"inconclusive: 20.9 µM [cytotoxic, partial curve]","inconclusive: 20.9 µM [cytotoxic, partial curve]","inconclusive: 18.7 µM [cytotoxic, partial curve]",,active: 10.5 µM,,active: 11.8 µM,,"inconclusive: 16.6 µM [cytotoxic, partial curve]",
CCS(=O)(=O)N1CC(CC#N)(n2cc(-c3ncnc4[nH]ccc34)cn2)C1,"inconclusive: 16.4 µM [cytotoxic, partial curve] and inconclusive: 7.42 µM [cytotoxic, partial curve]",inactive,"inconclusive: 41.8 µM [cytotoxic, single point]",inactive,,"inconclusive: 26.4 µM [cytotoxic, single point]","inconclusive: 26.4 µM [cytotoxic, single point]","inconclusive: 23.5 µM [cytotoxic, single point]","inconclusive: 35.5 µM [cytotoxic, single point]",inactive,
N#Cc1c(C2CCNCC2)cc(-c2c(O)cccc2OCC2CC2)nc1N,active: 5.9 µM,inactive,inactive,,,"inconclusive: 23.5 µM [cytotoxic, partial curve]","inconclusive: 20.9 µM [cytotoxic, partial curve]",,active: 28.2 µM,,
COc1cc(CCc2cc(NC(=O)c3ccc(N4C[C@@H](C)N[C@@H](C)C4)cc3)n[nH]2)cc(OC)c1,active: 1.18 µM,"inconclusive: 20.9 µM [cytotoxic, single point]","inconclusive: 18.7 µM [cytotoxic, partial curve]",,"inconclusive: 6.62 µM [cytotoxic, partial curve]",active: 5.26 µM,,"inconclusive: 6.62 µM [cytotoxic, partial curve, poor fit]",,active: 20.9 µM,
